PubChem BioAssay AID686979 (National Center for Advancing Translational Sciences (NCATS), 2013)
The campaign covered roughly 420,000 compounds. About 50,000 (12%) were called active. The shares of active, inactive and inconclusive entries below differ from those in the screen. Calls follow the shape of the dose curve; as a rule, active = well fitted inhibition curve with a large enough effect; inconclusive = small, poorly fitted or top-dose-only effect; inactive = flat fitted curve, though single readings scatter. No potency is given beside an inconclusive call; the fits are too rough.

Experiment: qHTS for Inhibitors of human tyrosyl-DNA phosphodiesterase 1 (TDP1): qHTS in cells in presence of CPT; also: nearly all actives have a fitted effect of over 55% in size
Settings: chicken DT40 Tdp1-/-;hTDP1 cells + 20 nM CPT, ATP luminescence, 48 h; activity change, negative = growth inhibition: at 46.2 µM (top of the series) unless noted
Summary of the method: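 Chicken DT40 Tdp1-/- cells complemented with human TDP1, 400 cells/well, exposed to compounds plus 20 nM camptothecin for at least 48 h at 37 C; viability read as ATP content by CellTiter-Glo luminescence.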
% is scaled to controls: 0 for no effect and ±100 for the full control effect; potency is read from the fitted curve at half-maximal effect; tags tell the direction and shape of the fitted curve.

Structure (SMILES)	Potency	activity change, negative = growth inhibition
CCOC(=O)C1CCN(C(=O)CN(c2ccc3c(c2)OCCO3)S(=O)(=O)c2ccccc2)CC1	inconclusive [inhibitor, single point]	
Cc1cc(Nc2cccc(Cl)c2)nc2ccc(NC(=O)Cc3cccc(C(F)(F)F)c3)cc12	active: 9.2 µM	
CC(C)(C)c1cc(CCC(=O)N2CCC2)cc(C(C)(C)C)c1O	inconclusive [inhibitor, single point]	
CCCCOc1cccc(C(=O)N(Cc2sccc2C)C2CCS(=O)(=O)C2)c1 (configuration not stated)	inconclusive [inhibitor, single point]	
Cn1c(=O)n(C/C=C/c2ccccc2)c(=O)c2c1nc1n2CCCN1Cc1ccccc1	inconclusive [inhibitor, single point]	
COC(=O)c1ccc(N(C(=O)CNC(=O)c2ccco2)C(C(=O)NC2CCCC2)c2ccco2)cc1 (configuration not stated)	inconclusive [inhibitor, single point]	
C/C(=N\NC(=O)c1cccc(C)c1O)c1ccc(NC(=O)Cc2ccccc2)cc1	inactive	
COc1ccc(CNC(=O)c2ccc(NC(=O)N3CCCCc4ccccc43)cc2)cc1	inconclusive [inhibitor, single point]	
Cc1ccc(CNC(=O)C2CCN(S(=O)(=O)c3c(C)noc3/C=C/N(C)C)CC2)cc1	inactive	
COc1nc(SCC(=O)Nc2ccccc2Cl)nc(N(C)C)n1	inconclusive [inhibitor, single point]	
CCc1nc2c(OCc3cc(Cl)cc(Cl)c3)cccn2c1N(C)C(=O)c1ccccc1F	inconclusive [inhibitor, single point]	
COc1ccc(C(=O)NC(=S)Nc2ccc3c4c(cccc24)CC3)cc1OC	inconclusive [inhibitor, single point]	
CC(C)c1nc2sc3c(=O)n(N)cnc3c2c2c1COC(C)(C)C2	inactive	
C=CCNC(=O)C1CCN(c2ccc(S(=O)(=O)N3CCOCC3)cc2[N+](=O)[O-])CC1	inactive	
CCn1c(=O)c(C(=O)NNC(=O)c2ccccc2Cl)c(O)c2ccccc21	inconclusive [inhibitor, single point]	
Nc1c(-c2ccccc2)cnc2c(-c3ccccc3)cnn12	inactive	
Cc1ccc(-c2n[nH]c(=O)c3ccccc23)cc1S(=O)(=O)Nc1ccccc1	inconclusive [inhibitor, single point]	
CCCn1c(SCC(=O)c2ccc(CC)cc2)n[nH]c1=O	inconclusive [inhibitor, single point]	
COc1ccc(OC)c(NC(=O)c2cccc(NC(=O)c3ccccc3)c2)c1	inconclusive [inhibitor, single point]	
CC(=O)Nc1sc(/C(C#N)=C/c2ccc(Cl)c(Cl)c2)nc1-c1ccc(C)cc1	inactive	
CCn1c(/C=C2\C(=O)N(C)c3ccccc32)nc2ccccc2c1=O	inconclusive [inhibitor, single point]	
Cc1cc(NC(=O)COC(=O)c2cc([N+](=O)[O-])ccc2N2CCOCC2)ccc1Br	inconclusive [inhibitor, single point]	
CC1CCN(C(=O)Cn2cc3c(n2)CCCC3)CC1	inactive	
COc1ccc(/C=C/C(=O)Nc2ccccc2C(=O)O)cc1	inconclusive [inhibitor, single point]	

Structure (SMILES)	Potency	activity change, negative = growth inhibition
COc1ccc(C2C=C(c3ccccc3)Nc3nc(NC(=O)/C=C/c4ccccc4)nn32)cc1 (configuration not stated)	active: 9.2 µM	
Cc1c(C(=O)N2CCN(c3cccc(Cl)c3)CC2)cccc1[N+](=O)[O-]	active: 16.4 µM	
COCCCNCC(O)COc1ccccc1F (configuration not stated)	inactive	
Cc1ccccc1OCC(=O)N1CCCc2ccccc21	inactive	
Cn1ccc2c(OCC(=O)Nc3cc(C(F)(F)F)ccc3Cl)cccc2c1=O	active: 25.9 µM	
C[C@@H]1CCCCO[C@H](CN(C)Cc2ccc(C(=O)O)cc2)[C@H](C)CN([C@@H](C)CO)C(=O)c2cc(NC(=O)Nc3ccc(C(F)(F)F)cc3)ccc2O1	inactive	
O=C1C(Cc2ccccc2)Nc2ncnc(N3CCCCC3)c2N1Cc1ccccc1 (configuration not stated)	inconclusive [inhibitor, partial curve]	
OC(COc1ccc(Br)cc1)CN1CCCC1 (configuration not stated)	inactive	
CCCCC(C(=O)NCCC(C)C)N(CCCN1CCOCC1)C(=O)c1snc(C(N)=O)c1N (configuration not stated)	inconclusive [inhibitor, single point]	
COc1ccc(CNC(=O)c2cccc3c2C(=O)N(Cc2cccnc2)C3)cc1	inconclusive [inhibitor, single point]	
Cc1ccsc1CNC(=O)C1(C)CCN1C(=O)C(C)C (configuration not stated)	inactive	
COc1ccccc1C(=O)NCC(=O)OCCCOC(=O)CNC(=O)c1ccccc1OC	inactive	
CCCc1cc(C(=O)Nc2nccs2)cs1		inconclusive: -32.1% [inhibitor]
O=C(O)CN1C(=O)/C(=C/c2cccc(Cl)c2)Oc2ccccc21	inactive	
CCCn1c(N)c(N(CCOC)C(=O)c2cccc(S(=O)(=O)N3CCCc4ccccc43)c2)c(=O)[nH]c1=O	inconclusive [inhibitor, single point]	
CCN1CCSc2ccc(C(=O)NCc3ccc(OC)cc3)cc21	inactive	
CN1CCN(c2ccc(-c3cccc4nccn34)cn2)CC1	inconclusive [inhibitor, single point]	
Cc1cc(Nc2ccc(F)cc2)c2ccccc2n1	inconclusive [inhibitor, single point]	
CCCCCc1ccc(-c2cn(Cc3ccc(C)cc3)nn2)cc1	inconclusive [inhibitor, single point]	
CC(=O)N1c2ccc(S(=O)(=O)N3CCCC(C(=O)Nc4cccc(Cl)c4)C3)cc2CC1C (configuration not stated)	active: 16.4 µM	
CCS(=O)(=O)Nc1ccc(C2=NN(S(C)(=O)=O)C(c3cccs3)C2)cc1 (configuration not stated)	inactive	
CC(=O)N1CCc2cc(S(=O)(=O)CCC(=O)NCc3ccc(Cl)cc3)ccc21	inconclusive [inhibitor, partial curve]	
CN(CC(=O)Nc1ccc(Cl)c(C(F)(F)F)c1)C(=O)CCCc1nc2ccccc2c(=O)[nH]1	active: 11.6 µM	
O=C(Nc1cc(C(F)(F)F)ccc1N1CCOCC1)c1ccccc1	inconclusive [inhibitor, single point]	

Structure (SMILES)	Potency	activity change, negative = growth inhibition
O=C(Cn1cc(C(F)(F)F)ccc1=O)Nc1ccc2c(c1)OCCO2	inactive	
O=C(Cn1ncc2c3ccccc3n(Cc3cccc(Cl)c3)c2c1=O)NC1CCCCCC1	active: 8.2 µM	
COc1ccccc1CCC(=O)Nc1ccc(S(=O)(=O)Nc2ncccn2)cc1	inconclusive [inhibitor, single point]	
CCOc1ccc2oc(=O)cc(CN3CCN(C(=O)c4ccc(F)cc4)CC3)c2c1	inconclusive [inhibitor, single point]	
O=C(Nc1ccc(N2CCCCCC2)cc1)c1ccc[nH]1	inconclusive [inhibitor, single point]	
CS(=O)(=O)N1CCC(N2CCN(Cc3ccccc3)C(=O)C2=O)CC1	inactive	
C/C(=N/Nc1ccc([N+](=O)[O-])cc1)c1ccc(C)cc1C	inactive	
CC(C)n1nnnc1C1c2ccccc2C(=O)N1Cc1cccc(F)c1 (configuration not stated)	inactive	
Cc1ccc(C(=O)NNC(=O)c2ccoc2C)s1	inconclusive [inhibitor, full curve]	
COc1ccc(S(=O)(=O)Nc2ccc(-c3ccc(N4CCCC4)nn3)cc2)cc1C	inconclusive [inhibitor, single point]	
COc1ccc(N2C3=C(C(=O)CC(C)(C)C3)C(c3ccccc3OC)C3=C2CC(C)(C)CC3=O)cc1	inconclusive [inhibitor, single point]	
O=C1CCSC2(C(=O)N(Cc3ccc(F)cc3)c3ccccc32)N1c1ccc(F)c(F)c1 (configuration not stated)	active: 7.31 µM	
Cc1ccc(Cc2c(-c3cccc(Br)c3)nc3ccc(Cl)cn23)cc1	inconclusive [inhibitor, single point]	
CCCCOC(=O)CSC1=C(C#N)C(c2cccnc2)C(C(=O)OCC)=C(c2ccccc2)N1 (configuration not stated)	inconclusive [inhibitor, single point]	
CCc1ccc(-c2nc(CS(=O)CC(=O)NCCc3ccc(Cl)cc3)c(C)o2)cc1 (configuration not stated)	inconclusive [inhibitor, single point]	
CCOc1ccccc1N(CC(=O)N1CCc2ccccc2C1)S(=O)(=O)c1ccccc1	inconclusive [inhibitor, single point]	
O=C(CCl)N1N=C(c2ccco2)CC1c1ccco1 (configuration not stated)	active: 9.2 µM	
CS(=O)(=O)Cc1ccc(C(=O)N(CCc2ccccc2)Cc2ccccc2)cc1		inconclusive: -31.1% [inhibitor]
O=S(=O)(Nc1cccc(-c2ccc(N3CCCCCC3)nn2)c1)c1cccc(F)c1	inconclusive [inhibitor, single point]	
COC(=O)CCCCCNc1ccc(C(=O)OC)cc1N	inactive	
COc1ccc(CNC(=O)CN(C(=O)CCC(=O)Nc2ccccn2)c2ccccc2OC)cc1	inactive	
COc1ccc(C2CCCN2C(=O)Nc2ccc(Cl)cc2)cc1OC (configuration not stated)	inconclusive [inhibitor, single point]	
O=C1c2ccccc2C(Nc2cccc(C(F)(F)F)c2)N1Cc1ccco1 (configuration not stated)	active: 23.1 µM	
O=C1CCCC2=C1C(c1ccc(O)c(O)c1)c1c(ccc3ncccc13)N2 (configuration not stated)	inconclusive [inhibitor, partial curve]	
